# From PubChem BioAssay AID588855 (National Center for Advancing Translational Sciences (NCATS), 2011)
# Out of some 410,000 compounds screened, about 5,000 (1.2%) were called active. This list was built around the results that the source calls inconclusive (neither active nor inactive); the mix of calls is not that of the screen. Calls follow the shape of the dose curve; as a rule, active = well fitted inhibition curve with a large enough effect; inconclusive = small, poorly fitted or top-dose-only effect; inactive = no such curve, though single readings can be large or run the other way. Potencies beside an inconclusive call are fits to weak or partial responses and may not hold up.
# Experiment: qHTS for Inhibitors of TGF-b; also: nearly all actives have a fitted effect of over 65% in size
# Conditions: HepG2 CAGA-GFP TGF-b/SMAD3 reporter, GFP fluorescence, 18 h, TGF-beta stimulated, 500 pg/mL final; series mostly up to 46.1 µM; activity, negative = inhibition: at the top concentration
# Outline: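 Inhibition of TGF-beta-driven CAGA-GFP reporter expression in HEPG2 cells is measured by cellular GFP fluorescence after 18 h stimulation with 500 pg/mL recombinant TGF-beta in 1% FBS medium at 37 degrees C.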
# % is scaled to controls: 0 for no effect and ±100 for the full control effect; potency is read from the fitted curve at half-maximal effect; tags tell the direction and shape of the fitted curve.
Compound,"activity, negative = inhibition",Potency
CCOc1cc(C(=O)O)cc(Cl)c1OC,inactive: 17.6%,–
COc1ccc(C(=O)N/N=C/c2ccccn2)cc1OC,inactive: 3.48%,–
C=C1NN(C)C(=O)N1c1ccc(OC)cc1,inactive: -2.29%,–
Cc1ccc(NC(=O)CN(C)C(=O)c2cccc(S(=O)(=O)N3CCc4ccccc43)c2)cc1,–,"inconclusive: 35.5 µM [inhibitor, single point]"
C[C@H](CO)N1C[C@H](C)[C@H](CN(C)C(=O)Nc2ccc(F)cc2)OCc2ccccc2-c2c(n(C)c3ccccc23)C1=O,–,"inconclusive: 35.5 µM [inhibitor, single point]"
CCn1c(=O)cc(SCC(=O)NCc2cccc(Cl)c2)c2ccccc21,–,"inconclusive: 35.5 µM [inhibitor, single point]"
COc1ccccc1C(=O)N1c2ncnn2C2(CCCCC2)[C@@H]2CCCC[C@@H]21,inactive: 14.5%,–
Cc1cc(=O)oc2cc(OCC3CC(c4ccccc4Cl)=NO3)ccc12 (stereo unspecified),–,"inconclusive: 15.8 µM [inhibitor, single point]"
CCN1C(=O)c2ccccc2Sc2ccc(NC(=O)N3CCN(c4cc(C)ccc4C)CC3)cc21,–,"inconclusive: 3.16 µM [inhibitor, full curve]"
CCc1cc2c(CN3CCN(Cc4ccccc4)CC3)cc(=O)oc2cc1O,–,"inconclusive: 15.8 µM [inhibitor, single point]"
COC(=O)Cn1c(=NC(=O)CN2C(=O)CCC2=O)sc2cc(S(N)(=O)=O)ccc21,inactive: 1.08%,–
CC(C)c1ccc(OCc2nnc(SCC(=O)N3CCCCC3)o2)cc1,inactive: -9.15%,–
Cc1cc(C)c(NC(=O)CSc2nnc(CNC(=O)c3ccco3)o2)c(C)c1,inactive: 6.65%,–
C/C(=N\NC(=O)c1nnn(-c2nonc2N)c1C(C)C)c1cc(C)sc1C,–,"inconclusive: 3.55 µM [inhibitor, partial curve, poor fit]"
Cc1ccc(CNC(=O)Nc2cc(C(=O)NCc3ccc(C(C)C)cc3)ccc2N2CCCC2)cc1,–,"inconclusive: 6.31 µM [inhibitor, single point]"
COc1ccc([C@@]2(C(C)C)ON(c3ccccc3C(F)(F)F)C2=O)cc1,–,"inconclusive: 35.5 µM [inhibitor, single point]"
CC(C)(C)OC(=O)N1CCC(c2c(C(=O)NCCN3CCc4ccccc4C3)cnn2-c2ccc(F)cc2)CC1,–,"inconclusive: 22.4 µM [inhibitor, single point]"
COc1cc(C=O)ccc1OC(=O)c1ccncc1,inactive: -8.23%,–
COCO[C@H]([C@@H](C)C=C(Br)Br)[C@@H](C)COCc1ccc(OC)cc1,–,"inconclusive: 28.2 µM [inhibitor, single point]"
Cn1nc(C(=O)Nc2ccc3c(c2)OCCO3)c2ccccc2c1=O,inactive: 19.9%,–
CCc1ccccc1NC(=O)CN(c1ccccc1)S(=O)(=O)c1ccsc1C(=O)OC,–,"inconclusive: 17.8 µM [inhibitor, single point]"

Compound,"activity, negative = inhibition",Potency
CN(CC(=O)Nc1ccc(Cl)c(C(F)(F)F)c1)C(=O)c1cccc2cccnc12,–,"inconclusive: 35.5 µM [inhibitor, single point]"
CCCOc1ccc(N2C(=O)CC(S/C(N)=N/N=C(\C)c3cccs3)C2=O)cc1 (stereo unspecified),–,"inconclusive: 35.5 µM [inhibitor, single point]"
CCC(=O)C1=C(c2ccc(F)cc2)N(C(=O)CC)n2cnnc2S1,–,"inconclusive: 12.6 µM [inhibitor, partial curve, poor fit]"
Cc1ccc(S(=O)(=O)N(CC(=O)N/N=C/c2cccc(Cl)c2)c2cccc3cccnc23)cc1,–,"inconclusive: 3.55 µM [inhibitor, single point]"
CCCOc1ccc(-c2cccc(NS(=O)(=O)c3ccccc3)c2)nn1,–,active: 10 µM
COc1ccc(S(=O)(=O)N(C)C[C@@H]2Oc3cc(C#CC4CCCCC4)ccc3S(=O)(=O)N([C@@H](C)CO)C[C@@H]2C)cc1,–,"inconclusive: 35.5 µM [inhibitor, single point]"
CCOc1cccc(C2C=C(c3ccc4c(c3)OCO4)NC(c3ccc(F)cc3)N2)c1O (stereo unspecified),–,"inconclusive: 25.1 µM [inhibitor, single point]"
CC(O)(CS(=O)(=O)Cc1cccc(C(F)(F)F)c1)C(=O)Nc1cccc(C(F)(F)F)c1 (stereo unspecified),–,"inconclusive: 35.5 µM [inhibitor, single point]"
COc1ccccc1N1CCN(CC(O)c2ccc3cc[nH]c3c2)CC1 (stereo unspecified),inactive: -11%,–
COc1ccc(OCC(=O)Nn2c(-c3cccc(OC)c3)nc3ccccc3c2=O)cc1,–,"inconclusive: 0.112 µM [inhibitor, full curve, poor fit]"
CSc1nc(N(CCO)CCO)c2sc3nc(-c4ccco4)c4c(c3c2n1)CCC4,–,"inconclusive: 35.5 µM [inhibitor, single point]"
O=C(/C=C/c1ccco1)NCC(=O)N/N=C/c1ccccc1[N+](=O)[O-],–,"inconclusive: 12.6 µM [inhibitor, single point]"
Cc1ccc([N+](=O)[O-])c(OCCCN2CCC(Cc3ccccc3)CC2)c1,–,"inconclusive: 15.8 µM [inhibitor, single point]"
CC1CCC(NC(=O)c2cccc(S(=O)(=O)N3CCN(C)CC3)c2)CC1 (stereo unspecified),–,"inconclusive: 17.8 µM [inhibitor, single point]"
O=C(O)c1ccc(N=C2SCC(=O)N2Cc2ccccc2)cc1,inactive: -7.22%,–
CCc1ccccc1NC(=O)Cn1cc(S(=O)(=O)N2CCCC2)c(S(=O)(=O)N2CCCC2)c1,inactive: -15.1%,–
Cc1ccc2c(c1)N(C(=O)CCC(=O)NCCCN1CCC(Cc3ccccc3)CC1)CCO2,–,"inconclusive: 35.5 µM [inhibitor, single point]"
COc1cccc(Oc2ccc(C(F)(F)F)cc2NC(=O)CCc2nc3ccccc3c(=O)[nH]2)c1,–,"inconclusive: 22.4 µM [inhibitor, single point]"
Cc1csc(CCc2nc(C)cs2)n1,–,"inconclusive: 22.4 µM [inhibitor, single point]"
CN1CCN(NC(=O)c2ccc(Cl)c([N+](=O)[O-])c2)CC1,–,"inconclusive: 5.62 µM [inhibitor, single point]"
